# Measured values reported in PubChem BioAssay AID624418 (National Center for Advancing Translational Sciences (NCATS), 2012).
# Hit rate of the full screen: of about 410,000 compounds, about 530 (0.13%) were called active. Inconclusive results, whose numbers are uncertain, are shown with a selection of clear calls. Calls come from the whole dose curve; as a rule, active = well fitted inhibition curve with a large enough effect; inconclusive = small, poorly fitted or top-dose-only effect, or another doubt; inactive = no such curve, though single readings can be large or run the other way. A potency beside an inconclusive call is a rough fit, not a confirmed value.
# Assay: qHTS of GLP-1 Receptor Inverse Agonists: Cytotox Screen
# Conditions: HEK293 cAMP-luciferase reporter cells, luminescence, 24 h; series mostly up to 38.3 µM
# In short: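 Here, cytotoxicity is scored as loss of luminescence. The MLSMR collection was tested on cells seeded in medium containing 10% Nu serum, with a 24 hr compound exposure preceded by 12 hours of culture.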
# Potency is the fitted concentration of half-maximal effect.
row,Compound,Potency
1,Cc1ccc2oc(-c3cc(NC(=O)CC(C)C)ccc3Cl)nc2c1,inactive
2,O=C(c1ccc(Cl)cc1)C1CCN(C(=O)NC2CCCCC2)CC1,"inconclusive: 28.2 µM [inhibitor, single point]"
3,COc1cc(C(=O)Oc2c(CN3CCOCC3)cc(Cl)c3cccnc23)cc(OC)c1OC,"inconclusive: 0.501 µM [inhibitor, full curve, poor fit]"
4,NS(=O)(=O)c1ccc(CCNC(=O)c2cc(-c3ccc(Br)cc3)nc3ccccc23)cc1,active: 11.2 µM
5,CC(C)n1cnc2c(Nc3cccc(Cl)c3)nc(NCCCO)nc21,"inconclusive: 28.2 µM [inhibitor, single point]"
6,O=c1[nH]c(C2CCN(S(=O)(=O)Cc3ccccc3)CC2)nc2c1nnn2Cc1ccccc1Cl,"inconclusive: 2.51 µM [inhibitor, full curve]"
7,Cc1c(C(=O)N2CCC(C)CC2)oc2ccc3c(c12)C(O)CC1(CCCCC1)O3 (centres undefined),"inconclusive: 7.94 µM [inhibitor, partial curve, poor fit]"
8,COc1ccc(C(=O)N/N=C(\C)CC(=O)Nc2cccc(C(F)(F)F)c2)cc1,"inconclusive: 12.6 µM [inhibitor, single point]"
9,Nc1c(C(=O)Nc2ccccc2)nnn1-c1ccc2c(c1)OCCO2,"inconclusive: 5.62 µM [inhibitor, partial curve, poor fit]"
10,O=C(/C=C/c1ccco1)Nc1sc2c(c1C(=O)O)CCC2,"inconclusive: 10 µM [inhibitor, single point]"
11,CC1=C(C(=O)N2CCN(c3ccc(Cl)cc3)CC2)C2(CCC(C)CC2)OC1=O (centres undefined),inactive
12,CC1(c2ccccc2)NC(=O)N(CC(=O)Nc2cccc(/C=C/c3ccccn3)c2)C1=O (centres undefined),"inconclusive: 11.2 µM [inhibitor, single point]"
13,O=C(CN1C(=O)NC2(CCCC2)C1=O)NCc1cccc(Cl)c1,"inconclusive: 20 µM [inhibitor, single point]"
14,O=C(COc1cccc2ccccc12)Nc1ccc(Cl)cc1C(=O)O,inactive
15,COc1ccc(-c2nc3sc(CCNC(=O)C(=O)Nc4ccc(C)c(C)c4)c(C)n3n2)cc1,inactive
16,C=CCNC(=S)N/N=C/c1cccc([N+](=O)[O-])c1,"inconclusive: 11.2 µM [inhibitor, single point]"
17,CN(C)CCCN(C(=O)c1ccc(S(=O)(=O)N(C)C2CCCCC2)cc1)c1nc2ccc(Br)cc2s1,"inconclusive: 11.2 µM [inhibitor, single point]"
18,COC(=O)c1ccc(NC(=O)Nc2cccc(F)c2)cc1,"inconclusive: 10 µM [inhibitor, single point]"
19,COCCN=c1scc(-c2cc(OC)c(OC)c(OC)c2)n1/N=C/c1c(C)[nH]c2ccccc12,"inconclusive: 10 µM [inhibitor, single point]"
20,CCOc1cc(CNC(=O)NC2COc3ccccc3C2)cc(OCC)c1OCC (centres undefined),inactive
21,F[B-](F)(F)c1cncc2ccccc12,inactive
22,Cc1cc(C)c(C(=O)/C=C/c2cccc3ccccc23)c(=O)[nH]1,"inconclusive: 11.2 µM [inhibitor, partial curve, poor fit]"

row,Compound,Potency
1,C=CCc1cccc2cc(-c3nc4ccc(C(=O)O)cc4[nH]3)c(=O)oc12,inactive
2,O=C(c1cc2cc([N+](=O)[O-])ccc2oc1=O)N1CCN(C2CCCCC2)CC1,inactive
3,Brc1cc(Cc2nnc(-c3ccccc3)o2)c(Br)s1,inactive
4,Cc1c(C(=O)Nc2nc3ccccc3[nH]2)oc2ccccc12,"inconclusive: 14.1 µM [inhibitor, single point]"
5,COc1ccc(-c2nc(CN3CCCCC3c3nccn3C)c(C)o2)c(C)c1C (centres undefined),"inconclusive: 17.8 µM [inhibitor, single point]"
6,CN(Cc1ccccc1)C(=S)NC(=O)C1CCCCC1,"inconclusive: 17.8 µM [inhibitor, partial curve, poor fit]"
7,CCN1CCN(c2cc(C)c3cc(NC(=O)/C=C/c4cccc(OC)c4OC)ccc3n2)CC1,"inconclusive: 14.1 µM [inhibitor, single point]"
8,O=C(Nc1ccc(F)cc1)c1ccc2c(=O)n(CC3CCCO3)c(=S)[nH]c2c1 (centres undefined),"inconclusive: 1.58 µM [inhibitor, partial curve, poor fit]"
9,CN(C)CCCN(C(=O)c1ccc(S(=O)(=O)N2CCc3ccccc3C2)cc1)c1nc2ccc(F)cc2s1,"inconclusive: 17.8 µM [inhibitor, single point]"
10,CCCCCC(O)(c1ccc(OCC)cc1)C(CN1CCOCC1)c1ccccc1 (centres undefined),"inconclusive: 22.4 µM [inhibitor, single point]"
11,O=C(CCCN1C(=O)/C(=C/c2ccccc2)SC1=S)NCCCn1ccnc1,"inconclusive: 5.62 µM [inhibitor, full curve]"
12,COc1ccc(Br)cc1CNc1ccc(O)cc1,"inconclusive: 28.2 µM [inhibitor, single point]"
13,O=C1/C(=N\S(=O)(=O)c2cccs2)C([n+]2cccc(Cc3ccccc3)c2)=C([O-])c2ccccc21,"inconclusive: 12.6 µM [inhibitor, single point]"
14,CC(=O)c1ccc(Nc2cc(C)nc3ccc(C)cc23)cc1,"inconclusive: 28.2 µM [inhibitor, single point]"
15,O=C(Nc1ccc(C(=O)N2CCOCC2)cc1)Nc1cccc(Cl)c1,inactive
16,CN(C)/C=C/C=C1C(=O)CCCC1=O,"inconclusive: 7.94 µM [inhibitor, partial curve, poor fit]"
17,CCCn1c(NCc2ccc(N(CC)CC)cc2)nc2ccccc21,"inconclusive: 12.6 µM [inhibitor, single point]"
18,S=C(Nc1ccccc1)Nc1ccc(Cl)cn1,"inconclusive: 22.4 µM [inhibitor, single point]"
19,Cn1nnc2c[n+](CC(=O)c3ccc4ccccc4c3)cc(Br)c21,"inconclusive: 8.91 µM [inhibitor, partial curve]"
20,OC(c1cc(Cl)cc(Cl)c1)c1ncc(-c2ccccc2C(F)(F)F)[nH]1 (centres undefined),"inconclusive: 28.2 µM [inhibitor, single point]"
21,COc1ccc(OC)c(-c2c3cc(O)c(=O)cc-3oc3cc(O)c(O)cc23)c1,"inconclusive: 22.4 µM [inhibitor, single point]"
22,Cc1ccc(NC(=O)c2ccc(N3CCOCC3)c([N+](=O)[O-])c2)cc1S(=O)(=O)N1CCOCC1,"inconclusive: 10 µM [inhibitor, partial curve]"

row,Compound,Potency
1,CCCCC(NC(=O)c1ccc(C#N)cc1)C(=O)NCCC (centres undefined),"inconclusive: 3.16 µM [inhibitor, full curve, poor fit]"
2,C=C1C(=O)[C@@]23[C@H](O)C[C@@H]4C(C)(C)CC[C@H](O)[C@@]4(C)[C@@H]2CC[C@@H]1[C@H]3O,"inconclusive: 11.2 µM [inhibitor, partial curve, poor fit]"
3,O=S(=O)(c1ccc(Cl)c(NC(=S)N/N=C/c2c(F)cccc2F)c1)N1CCOCC1,"inconclusive: 2.51 µM [inhibitor, full curve]"
4,CCOc1cc(/C=N/N=C(\N)c2nonc2N)cc(Br)c1OCc1cccc2ccccc12,"inconclusive: 28.2 µM [inhibitor, single point]"
5,CN(Cc1ccccc1)c1ccc(C(CC(N)=O)NC(=O)c2ccccc2)cc1[N+](=O)[O-] (centres undefined),"inconclusive: 7.94 µM [inhibitor, partial curve, poor fit]"
6,O=C(NCCc1ccccc1)c1ccc(CSc2nc3ccncc3n2Cc2ccc(F)cc2)cc1,inactive
7,CCOC(=O)CCCc1ccc(/C(C)=N/NC(N)=S)cc1,"inconclusive: 0.501 µM [inhibitor, full curve, poor fit]"
8,Cc1ccc(S(=O)(=O)Nc2ccccc2/C=N/c2nc3ccccc3n2C(C)C)cc1,"inconclusive: 11.2 µM [inhibitor, partial curve, poor fit]"
9,Cn1cc(-c2ccccc2C(N)=O)c(=O)c2cc(Cl)ccc21,inactive
10,NC(=O)C1CCN(C(=O)CN2C(=O)c3ccccc3S2(=O)=O)CC1,inactive
11,COc1ccc(OC)c2c1C(=O)C(Cl)=C(Cl)C2=O,"inconclusive: 6.31 µM [inhibitor, partial curve, poor fit]"
12,O=c1c(Cl)c(Cl)cnn1Cc1nnc(-c2ccc(Cl)cc2)o1,"inconclusive: 11.2 µM [inhibitor, partial curve, poor fit]"
13,COc1cccc(C(=O)N/N=C/C(Br)=C/c2ccccc2)c1,"inconclusive: 2.24 µM [inhibitor, full curve]"
14,CCOC(=O)C1(Cc2ccccc2C(F)(F)F)CCN(C2CCCC2)CC1,"inconclusive: 10 µM [inhibitor, partial curve, poor fit]"
15,CCSC1(SCC)N=C(N)C2(C#N)C(c3ccc(OC)c(OC)c3OC)C12C#N (centres undefined),"inconclusive: 10 µM [inhibitor, partial curve, poor fit]"
16,Cc1cccc(NC(=O)c2nc[nH]c2C(=O)N[C@@H](Cc2ccccc2)C(=O)OC(C)(C)C)c1,"inconclusive: 31.6 µM [inhibitor, single point]"
17,Cc1ccc(S(=O)(=O)Nc2cccnc2)cc1C,inactive
18,S=C(NCc1ccc(Cl)cc1)NC1CCCCC1,"inconclusive: 11.2 µM [inhibitor, single point]"
19,Cc1ccc(C(OCC(O)CNC(CO)C(O)c2ccc([N+](=O)[O-])cc2)c2ccccc2)cc1 (centres undefined),inactive
20,CC(=O)Nc1ccc(Nc2nc(C)c([N+](=O)[O-])c(Nc3ccccc3)n2)cc1,"inconclusive: 10 µM [inhibitor, partial curve, poor fit]"
